# According to the supplement of paper PMC11417369:
# The other results are listed elsewhere or left out.
# Tested on: PF3D7_0420300 AP2 domain 1 (GST-tagged)
# Assay: gcPBM binding intensity (ln(normalized median fluorescence intensity)); higher = stronger DNA binding
# How it was run: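 An Agilent 4 × 180k array carrying primer-extended double-stranded 36-bp intergenic genomic probes and negative controls received GST-tagged P. falciparum DNA-binding domains expressed in E. coli, about 25 μg on average, for 1 h. The binding buffer contained 1× PBS, 1% milk, 0.2 mg/ml BSA, 0.5% salmon testes DNA and 0.03% Triton X-100. Binding intensity is the top Masliner-normalised natural-log median intensity across replicate spots of either probe orientation, read after Alexa488 anti-GST antibody staining and a 488 nm scan.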
row,Sequence,gcPBM binding intensity (ln)
1,TAGTATAATATGAACACACACACACCCACAAAAAAA [CACACA_site2009],10
2,TGGATATATGTAAAAATTGCAAGAAAGATAAAAGGA [CACACA_negctrl_site64],9.6
3,ATTATGATATATATATGTACATATATATAATATAAT [XGTACX_site259],9.21
4,TCTATGAATTAATATGCATGTAACGTATTTATACTT [TGCATGCA_site669],9.29
5,AAAAAAAAAAAAAGTGCACACTTTTAATATAAATAT [CACACA_site3314],9.16
6,TTTTATATATATTATACACACAAGGAAAAAAAAAAA [CACACA_site3677],9.53
7,TTTTTATTTTTTAGTAGTACACACTTTTTGAACCTT [XGTACX_site1091],9.41
8,TTTTTTTTTTTCCTTACACACATATTTCATTTTATA [CACACA_site747],9.76
9,TATAAAAGGAAACACACACACATATATATATATATA [CACACA_site939],9.74
10,ATACATATACACATTTGTACATATTCCTTTTTATCG [XGTACX_site1731],9.47
11,TCTTGTTTTAATTTTTATATTATTATTTAGATATAT [CACACA_negctrl_site921],9.38
12,TTATTTAAAATGAAAAGTACATATTACTTTCTCACA [XGTACX_site5043],8.8
13,TACTAAATGATCATATGTACACATGTTTACTTTTTA [XGTACX_site1253],9.26
14,AATATATATATATATATATATATTTCAATATATAAA [XGTACX_negctrl_site187],8.95
15,CTTGGTAGTTTTTTCTTATAATCTAATTATTAATAA [CACACA_negctrl_site153],9.29
16,TTAATATGAAAACTCTGTACCCAACCTTCTTATGGA [XGTACX_site2126],9.26
17,TATATAAATATATAATGTACGTTTTAAAAATAATAT [XGTACX_site3881],9.19
18,ATATATTAATATGTGTGTACTTAACCATTCATATGT [XGTACX_site7395],9.55
19,ATATAATAAATGTAGGTGCATAAAAATATTTTGTTA [GTGCAC_site9780],9.39
20,TTTTAATAATATGGATGTACATAAAAATAAATAAAT [XGTACX_site7937],9.39
21,TTAACCACTAAAAGTACACACATATATACCTATATA [CACACA_site6026],9.53
22,TAGTATTATTTTTTTTGTACATATAAATGTAAAATA [XGTACX_site5282],8.99

row,Sequence,gcPBM binding intensity (ln)
1,TTTTTTTAAAATATGAGTACATAATATTGTAAAAAT [XGTACX_site6536],8.92
2,AAAACATAAATACATACACACATAATATATATTAAG [CACACA_site4239],9.91
3,AATATATTAAATATTACACACATACATTTAGTGGAA [CACACA_site8609],9.49
4,TACTAAGAAAAGAACTGTACATAGAATATACCCAAG [XGTACX_site4757],9.39
5,AATATCAAAAAAAAAAAAAAAAAAAAAAAAAAAAAA [CACACA_negctrl_site288],8.59
6,ATGATAATTATTAAGGGTACATAAAAATATATCTAT [XGTACX_site8969],9.28
7,TATAATTATTTTTTCACACATATGTATTTATATATA [CACACA_site4205],9.41
8,ATTATTTAACATGTGGACACAAAAATTTAAGGGTTC [CACACA_negctrl_site1269],9.31
9,AGATATATATATAGGTGTACTGGAATGAAATTGTTT [XGTACX_site8200],9.48
10,ATGTATATTTTTAAAAGTACAGAATTTTCATATGAA [XGTACX_site5754],9.03
11,ATAGTATCTGGTAGCTGTACGAGTCGTAGAGTCTAA [XGTACX_site2539],9.11
12,ATATACAATACAAAAACACACACAAAAAAAGAAAAG [CACACA_site8668],10.1
13,TATTTATTTATGTACGCACACAGTTGATATTAATTC [CACACA_site2754],9.4
14,TAAATATAATCTAAATGTACATGACATAATTTTTTT [XGTACX_site2856],9.03
15,GTGTAATATGAAATGTGTACACACGCACACACAAAA [XGTACX_site6180],9.98
16,TAAAATATTTTTTGTAGTACCTTAATATTTTTGAAG [XGTACX_site3048],8.86
17,TTTCAAAAATGAGTTACACACACACCGATATATATA [CACACA_site5263],9.97
18,AATAAATACTAAATGGTGCAAAATTTTTTAACACTG,9.27
19,TATATATATTATAGATGTACTTTCATATATATGTTT [XGTACX_site8189],9.3
20,AGCCACCATATTTACACACACATCAAAATGTATTAA [CACACA_site1816],10
21,TATTCATCACTTTTTTGTACTTATGGATAAAATTTT [XGTACX_site3349],9.32
22,ATAATTGTTTCTTTCTCCTTTTTATTTCATTTTAAA [CACACA_negctrl_site964],9.48
